US20230416380A1 (AJOU UNIVERSITY INDUSTRY ACADEMIC COOPERATION FOUNDATION, published 2023)
Positions count from the first letter of the chain named. No constants are given. Whether binding was seen depends on the method and setting. Some entries that bind do so weakly or less than the wild type. For some of these results: Sequences can lack the tags named with a protein. Each block holds one binder with its values, some of them ahead of it.

Experiments:
[1] = target: T1, mD1-mD2-hD3 IL-5Rα (mouse domains 1 and 2, human domain 3), on the surface of yeast (mouse; human); experiment: flow cytometry on yeast, antibody 100 nM
T1 sequence: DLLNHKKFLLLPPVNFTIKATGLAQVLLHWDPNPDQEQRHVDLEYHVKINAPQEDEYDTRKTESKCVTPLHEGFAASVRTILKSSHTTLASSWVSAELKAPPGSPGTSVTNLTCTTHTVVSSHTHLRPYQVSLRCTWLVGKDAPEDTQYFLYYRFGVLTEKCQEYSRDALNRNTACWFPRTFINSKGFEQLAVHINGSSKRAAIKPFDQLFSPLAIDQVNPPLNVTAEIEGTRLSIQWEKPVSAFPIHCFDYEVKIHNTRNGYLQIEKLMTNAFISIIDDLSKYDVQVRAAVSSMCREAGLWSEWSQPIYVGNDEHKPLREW

[2] = target: T2, mouse IL-5Rα extracellular domain expressed on the surface of yeast (mouse) (UniProt P21183); experiment: flow cytometry on yeast displaying the receptor, antibody at 100 nM, fluorescent secondary antibody; control: 2nd Ab only
T2 sequence: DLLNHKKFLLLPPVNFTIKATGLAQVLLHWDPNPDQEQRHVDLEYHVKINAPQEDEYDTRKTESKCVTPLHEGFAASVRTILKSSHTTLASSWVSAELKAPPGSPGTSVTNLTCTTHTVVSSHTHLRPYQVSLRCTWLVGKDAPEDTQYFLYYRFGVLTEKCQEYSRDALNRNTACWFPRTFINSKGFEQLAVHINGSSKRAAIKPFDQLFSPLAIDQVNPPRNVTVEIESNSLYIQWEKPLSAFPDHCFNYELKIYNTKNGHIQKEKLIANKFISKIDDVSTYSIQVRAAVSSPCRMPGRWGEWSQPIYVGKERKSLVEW

[3] = target: T3, hD1-mD2-mD3 IL-5Rα (human domain 1, mouse domains 2 and 3), on the surface of yeast (human; mouse) (UniProt P21183); experiment: as above
T3 sequence: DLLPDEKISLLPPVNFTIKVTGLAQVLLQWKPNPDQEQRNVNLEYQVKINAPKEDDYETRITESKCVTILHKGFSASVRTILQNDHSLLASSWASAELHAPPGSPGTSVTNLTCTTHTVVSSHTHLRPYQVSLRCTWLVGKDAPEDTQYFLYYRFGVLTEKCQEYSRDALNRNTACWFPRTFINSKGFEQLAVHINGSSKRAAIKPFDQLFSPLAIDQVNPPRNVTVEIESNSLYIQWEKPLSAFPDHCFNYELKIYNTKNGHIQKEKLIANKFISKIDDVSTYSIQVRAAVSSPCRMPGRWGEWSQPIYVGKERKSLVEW

[4] = target: T1, mD1-mD2-hD3 IL-5Rα (mouse domains 1 and 2, human domain 3), on the surface of yeast (mouse; human); experiment: as above
mD1-hD2-mD3 IL-5Rα = target: T4, mD1-hD2-mD3 IL-5Rα; experiment: as above
T4 sequence (extracellular domain displayed on yeast): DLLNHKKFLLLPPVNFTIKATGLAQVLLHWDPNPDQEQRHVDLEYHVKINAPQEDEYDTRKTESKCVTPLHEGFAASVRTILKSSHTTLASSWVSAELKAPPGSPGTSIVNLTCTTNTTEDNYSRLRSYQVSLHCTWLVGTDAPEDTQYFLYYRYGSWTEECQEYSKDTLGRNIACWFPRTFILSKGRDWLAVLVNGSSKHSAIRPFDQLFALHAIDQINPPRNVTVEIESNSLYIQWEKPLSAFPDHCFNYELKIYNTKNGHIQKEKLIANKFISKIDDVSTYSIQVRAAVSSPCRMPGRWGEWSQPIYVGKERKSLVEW

[5] = target: T5, sIL-5Rα (extracellular domain of human IL-5 receptor alpha subunit, Asp1-Asn313 of SEQ ID NO: 19, C-terminal Avi tag and 6×His tag, expressed in HEK293F) (human) (UniProt Q01344); experiment: biolayer interferometry (Octet QKe): antibody on the sensor, sIL-5Rα in solution; sheet legend 400, 200, 100, 50, 25 nM
T5 sequence: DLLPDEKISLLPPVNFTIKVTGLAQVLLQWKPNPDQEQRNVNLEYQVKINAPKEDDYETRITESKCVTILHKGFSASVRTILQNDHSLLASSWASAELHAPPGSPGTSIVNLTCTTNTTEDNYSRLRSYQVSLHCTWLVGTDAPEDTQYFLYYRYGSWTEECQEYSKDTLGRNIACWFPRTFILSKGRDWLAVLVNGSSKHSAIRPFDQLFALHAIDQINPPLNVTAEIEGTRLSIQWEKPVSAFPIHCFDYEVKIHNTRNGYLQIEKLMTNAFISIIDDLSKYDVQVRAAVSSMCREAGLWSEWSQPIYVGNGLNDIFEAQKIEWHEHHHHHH

binding [1]: binds | binding [2]: no binding (tested: 100 nM) | binding [3]: no binding (tested: 100 nM) | binding [4]: binds | binding (mD1-hD2-mD3 IL-5Rα): no binding (tested: 100 nM)
B1: 5R65.45 (anti-IL-5Rα humanized antibody, affinity matured from 5R65) (antibody, human IgG1, V domains shown)
VH: QVQLVQSGAEVKKPGSSVKVSCKASGYTFTSYWINWVRQAPGQGLEWIGHIYPNKNENYYNHKFKDKATLTVDKSTNTAYMELSSLRSEDTAVYYCTREYYGRSYYNAMDYWGQGTTLTVSS
VL: DIQMTQSPSTLSASVGDRVTITCKASQNVGTAVAWYQQKPGKAPKLLIYWASTRHTGVPDRFSGSGSGTDFTLTISSLQPDDFATYYCQQFGRYPYTFGSGTKVEVK

binding (mD1-hD2-mD3 IL-5Rα): no binding (tested: 100 nM)
B2: 5R65.39 (anti-IL-5Rα humanized antibody, affinity matured from 5R65) (antibody, human IgG1, V domains shown)
VH: B1 VH with Y100F, Y105R, N107S
VL: B1 VL

B3: hu2B7 (humanized m2B7) (antibody, V domains shown)
VH: B1 VH with N54S, K55E, N56S, E57Y, N58T, Y59N, H62Q, E99D, N107Y
VL: B1 VL
notes: Expressed from plasmids encoding HC and LC and purified on protein A; also called humanized antibody hu2B7
binding [5]: binds
